The source gives no read counts; variants with many changes may rest on few reads.
B1: CPEB3 Ribozyme (parent)
chain: UAACAGGGGGCCACAGCAGAAGCGUUCACGUCGCAGCCCCUGUCAGAUUCUGGUGAAUCUGCGAAUUCUGCUGUAUAUCUC

Variants of: B1
Assay: self-cleavage, relative activity (ratio to wild type); higher = more cleavage; in vitro, sequencing
Outline: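 Relative activity compares each variant's cleaved/total read fraction with that of the unmutated ribozyme. To get these fractions, barcoded CPEB3 ribozyme libraries from rounds of error-prone PCR were transcribed with T7 RNA polymerase for 5 hours at 37°C and then given 15 min of DNase I treatment before EDTA was added. The RNAs were reverse transcribed with template switching and sequenced on Illumina, and DNA sequencing linked barcodes to variants. A minimum of 5 reads applied, and three batches were averaged.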
With U26A C50A U69A the self-cleavage was 0.33.
In the case of U26A C62G U78C, the self-cleavage is reported as 0.12.
In the case of U26A G30U U49C U54C U58C, the self-cleavage is reported as 0.08.
With U26A G33A C40U U54G U80C the self-cleavage was 0.09.
Variant U26A G36U A57G U60A A65U has a self-cleavage of 0.09.
In the case of U26A G42A G61C U66C, the self-cleavage is reported as 0.07.
With U26A G46U U60C U66A the self-cleavage was 0.23.
U26A G61C U78A showed a self-cleavage of 0.25.
U26A G63U U66A showed a self-cleavage of 0.29.
In the case of U26A U31A U74A, the self-cleavage is reported as 0.78.
U26A U31C A35C C79A showed a self-cleavage of 0.56.
In the case of U26A U31C C34U U41A U54A, the self-cleavage is reported as 0.15.
With U26A U31C G46U A64U the self-cleavage was 0.1.
In the case of U26A U31C U41C, the self-cleavage is reported as 0.44.
With U26A U31C U48C U51G A65U U69C A77G the self-cleavage was 0.08.
Work on U26A U31C U54G G61U A64U U69C G73A yielded a self-cleavage of 0.11.
In the case of U26A U31C U58C U60A, the self-cleavage is reported as 0.44.
With U26A U41A U48C G52A A56U the self-cleavage was 0.09.
For U26A U41A U78C, the self-cleavage was 0.1.
With U26A U41C A45G A65U U67C the self-cleavage was 0.17.
In the case of U26A U41C A47G, the self-cleavage is reported as 0.57.
In the case of U26A U41C A47G U49C G63A, the self-cleavage is reported as 0.13.
In the case of U26A U41C A65U, the self-cleavage is reported as 0.23.
For U26A U41C U43A U76C, the self-cleavage was 0.14.
With U26A U41C U48C U69A G73A the self-cleavage was 0.18.
In the case of U26A U43A U60C, the self-cleavage is reported as 0.29.
For U26A U43A U72G, the self-cleavage was 0.09.
U26A U43C A47G U60G A77G showed a self-cleavage of 0.13.
Variant U26A U43C A56G has a self-cleavage of 0.14.
U26A U43C G63A showed a self-cleavage of 0.25.
With U26A U43C U51A the self-cleavage was 0.38.
U26A U43C U58A gave a self-cleavage of 0.14.
For U26A U43G A64U U72C, the self-cleavage was 0.15.
U26A U48C U49C U66C gave a self-cleavage of 0.07.
U26A U48C U66C U80C gave a self-cleavage of 0.14.
U26A U49C A65U showed a self-cleavage of 0.08.
U26A U49C U54A showed a self-cleavage of 0.23.
Variant U26A U51A U54C U58C has a self-cleavage of 0.24.
U26A U51A U72A gave a self-cleavage of 0.71.
Variant U26A U51A U74C has a self-cleavage of 1.09.
With U26A U51C U80C the self-cleavage was 0.56.
U26A U54A U60A gave a self-cleavage of 0.32.
U26A U54A U60C G70A gave a self-cleavage of 0.42.
For U26A U58A U67A U69C, the self-cleavage was 0.17.
Work on U26A U60A G61C yielded a self-cleavage of 0.19.
U26A U60C U67C showed a self-cleavage of 0.19.
With U26A U67C A75G U80C the self-cleavage was 0.1.
U26A U72C U78A showed a self-cleavage of 1.03.
For U26C A28C U66C, the self-cleavage was 0.21.
In the case of U26C A28G A56G C68G G73A U78C, the self-cleavage is reported as 0.07.
In the case of U26C A28G A65G, the self-cleavage is reported as 0.14.
With U26C A28G C71G the self-cleavage was 0.09.
For U26C A28G C81U, the self-cleavage was 0.29.
U26C A28G U41G showed a self-cleavage of 0.11.
U26C A28G U43C A45G gave a self-cleavage of 0.54.
With U26C A28G U49C the self-cleavage was 0.19.
U26C A28G U54A U58C gave a self-cleavage of 0.22.
In the case of U26C A28G U67C, the self-cleavage is reported as 0.19.
Variant U26C A28G U72C C81U has a self-cleavage of 0.34.
In the case of U26C A28U C32A U58A, the self-cleavage is reported as 0.08.
U26C A28U C44U U51A U58A gave a self-cleavage of 0.09.
With U26C A28U C62U the self-cleavage was 0.11.
U26C A28U G70A showed a self-cleavage of 0.07.
U26C A28U U31C A35U A57G showed a self-cleavage of 0.17.
U26C A28U U48C A75G showed a self-cleavage of 0.33.
For U26C A35G A45G U69A, the self-cleavage was 0.47.
Variant U26C A35G C38U A64U has a self-cleavage of 0.42.
In the case of U26C A35G G36A A56U U60C, the self-cleavage is reported as 0.14.
Variant U26C A35G G42A has a self-cleavage of 0.4.
U26C A35G U41C U43A showed a self-cleavage of 0.07.
Work on U26C A35G U48C A64G U72C yielded a self-cleavage of 0.19.
For U26C A35G U48C U69C U72C, the self-cleavage was 0.27.
Work on U26C A35G U72C yielded a self-cleavage of 0.95.
U26C A35U A47G A56G showed a self-cleavage of 0.1.
Variant U26C A35U A56G A65U U69C has a self-cleavage of 0.12.
Work on U26C A35U C44U G61C U67A yielded a self-cleavage of 0.17.
U26C A35U U49C U60C U74C C79A showed a self-cleavage of 0.09.
For U26C A35U U49C U74C, the self-cleavage was 0.1.
Work on U26C A35U U54C yielded a self-cleavage of 0.12.
Work on U26C A35U U67C C68U U69A U72C yielded a self-cleavage of 0.16.
In the case of U26C A45G A56G A64G, the self-cleavage is reported as 0.14.
U26C A45G A57G U69C U72A U78A gave a self-cleavage of 0.09.
Work on U26C A45G A64G U66C U80C yielded a self-cleavage of 0.13.
For U26C A45G G52A A65G U80C, the self-cleavage was 0.59.
